In the supplement of paper PMC8728848:
The list shows a part of the results.

Assays:
Experiment in all cases: glycan array binding signal (z-score within array); higher = stronger binding
Settings in all cases: glycan notation: IUPAC condensed, linker removed
[1] = molecular target: Gal(b1-3)[Fuc(a1-4)]GlcNAc
Procedure, shortened: (§1)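 Arrays were curated from the Consortium for Functional Glycomics database, 3228 in total, and kept only where the protein sequence was available. Binding is expressed as a within-array Z-score. This score was averaged across arrays of the same protein sequence at different concentrations or buffers and across linkers, and negative values can be read as non-binding.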

[2] = molecular target: Gal(b1-3)[Fuc(a1-4)]GlcNAc(b1-2)Man(a1-3)[Gal(b1-3)[Fuc(a1-4)]GlcNAc(b1-2)Man(a1-6)]Man(b1-4)GlcNAc(b1-4)GlcNAc
Procedure, shortened: as §1

[3] = molecular target: Gal(b1-3)[Fuc(a1-4)]GlcNAc(b1-2)Man(a1-3)[Gal(b1-3)[Fuc(a1-4)]GlcNAc(b1-2)Man(a1-6)]Man(b1-4)GlcNAc(b1-4)[Fuc(a1-6)]GlcNAc
Procedure, shortened: as §1

[4] = molecular target: Gal(b1-3)[Fuc(a1-4)]GlcNAc(b1-3)Gal(b1-3)[Fuc(a1-4)]GlcNAc
Procedure, shortened: as §1

[5] = molecular target: Gal(b1-3)[Fuc(a1-4)]GlcNAc(b1-3)Gal(b1-4)GlcNAc
Procedure, shortened: as §1

[6] = molecular target: Gal(b1-3)[Fuc(a1-4)]GlcNAc(b1-3)Gal(b1-4)[Fuc(a1-3)]GlcNAc
Procedure, shortened: as §1

[7] = molecular target: Gal(b1-3)[GlcNAc(b1-6)]GalNAc
Procedure, shortened: as §1

[8] = molecular target: Gal(b1-3)[Neu5Ac(a2-6)]GalNAc
Procedure, shortened: as §1

[9] = molecular target: Gal(b1-3)[Neu5Ac(a2-6)]GlcNAc(b1-6)Gal(b1-4)Glc
Procedure, shortened: as §1

[10] = molecular target: Gal(b1-3)[Neu5Ac(b2-6)]GalNAc
Procedure, shortened: as §1

[11] = molecular target: Gal(b1-4)GalNAc(a1-3)[Fuc(a1-2)]Gal(b1-4)GlcNAc
Procedure, shortened: as §1

[12] = molecular target: Gal(b1-4)GalNAc(b1-3)[Fuc(a1-2)]Gal(b1-4)GlcNAc
Procedure, shortened: as §1

Gal(b1-4)Glc = molecular target: Gal(b1-4)Glc
Procedure, shortened: as §1

Gal(b1-4)Glc6S = molecular target: Gal(b1-4)Glc6S
Procedure, shortened: as §1

Gal(b1-4)GlcNAc = molecular target: Gal(b1-4)GlcNAc
Procedure, shortened: as §1

[13] = molecular target: Gal(b1-4)GlcNAc(a1-6)Gal(b1-4)GlcNAc
Procedure, shortened: as §1

[14] = molecular target: Gal(b1-4)GlcNAc(b1-2)Man(a1-3)Man(b1-4)GlcNAc(b1-4)GlcNAc
Procedure, shortened: as §1

[15] = molecular target: Gal(b1-4)GlcNAc(b1-2)Man(a1-3)[Gal(b1-4)GlcNAc(b1-2)Man(a1-6)]Man(b1-4)GlcNAc(b1-4)GlcNAc
Procedure, shortened: as §1

[16] = molecular target: Gal(b1-4)GlcNAc(b1-2)Man(a1-3)[Gal(b1-4)GlcNAc(b1-2)Man(a1-6)]Man(b1-4)GlcNAc(b1-4)[Fuc(a1-6)]GlcNAc
Procedure, shortened: as §1

[17] = molecular target: Gal(b1-4)GlcNAc(b1-2)Man(a1-3)[Man(a1-6)]Man(b1-4)GlcNAc(b1-4)GlcNAc
Procedure, shortened: as §1

[18] = molecular target: Gal(b1-4)GlcNAc(b1-2)Man(a1-6)Man(b1-4)GlcNAc(b1-4)GlcNAc
Procedure, shortened: as §1

[19] = molecular target: Gal(b1-4)GlcNAc(b1-2)Man(a1-6)[Man(a1-3)]Man(b1-4)GlcNAc(b1-4)GlcNAc
Procedure, shortened: as §1

[20] = molecular target: Gal(b1-4)GlcNAc(b1-2)[Gal(b1-4)GlcNAc(b1-4)]Man(a1-3)[Gal(b1-4)GlcNAc(b1-2)Man(a1-6)]Man(b1-4)GlcNAc(b1-4)GlcNAc
Procedure, shortened: as §1

[21] = molecular target: Gal(b1-4)GlcNAc(b1-3)Gal(b1-3)GlcNAc
Procedure, shortened: as §1

[22] = molecular target: Gal(b1-4)GlcNAc(b1-3)Gal(b1-4)Glc
Procedure, shortened: as §1

[23] = molecular target: Gal(b1-4)GlcNAc(b1-3)Gal(b1-4)GlcNAc
Procedure, shortened: as §1

[24] = molecular target: Gal(b1-4)GlcNAc(b1-3)Gal(b1-4)GlcNAc(b1-3)Gal(b1-4)GlcNAc
Procedure, shortened: as §1

[25] = molecular target: Gal(b1-4)GlcNAc(b1-3)Gal(b1-4)[Fuc(a1-3)]GlcNAc(b1-3)Gal(b1-4)[Fuc(a1-3)]GlcNAc
Procedure, shortened: as §1

[26] = molecular target: Gal(b1-4)GlcNAc(b1-3)GalNAc
Procedure, shortened: as §1

[27] = molecular target: Gal(b1-4)GlcNAc(b1-3)[Gal(b1-4)GlcNAc(b1-6)]Gal(b1-4)GlcNAc
Procedure, shortened: as §1

[28] = molecular target: Gal(b1-4)GlcNAc(b1-3)[GlcNAc(b1-6)]Gal(b1-4)GlcNAc
Procedure, shortened: as §1

[29] = molecular target: Gal(b1-4)GlcNAc(b1-6)Gal(b1-4)GlcNAc
Procedure, shortened: as §1

[30] = molecular target: Gal(b1-4)GlcNAc(b1-6)Gal(b1-4)GlcNAc(b1-6)GalNAc
Procedure, shortened: as §1

[31] = molecular target: Gal(b1-4)GlcNAc(b1-6)GalNAc
Procedure, shortened: as §1

[32] = molecular target: Gal(b1-4)GlcNAc(b1-6)[Gal(b1-3)]GalNAc
Procedure, shortened: as §1

Gal3S(b1-3)GalNAc = molecular target: Gal3S(b1-3)GalNAc
Procedure, shortened: as §1

Gal3S(b1-3)GlcNAc = molecular target: Gal3S(b1-3)GlcNAc
Procedure, shortened: as §1

[33] = molecular target: Gal3S(b1-3)[Fuc(a1-4)]GlcNAc
Procedure, shortened: as §1

Gal3S(b1-4)Glc = molecular target: Gal3S(b1-4)Glc
Procedure, shortened: as §1

Gal3S(b1-4)Glc6S = molecular target: Gal3S(b1-4)Glc6S
Procedure, shortened: as §1

Gal3S(b1-4)GlcNAc = molecular target: Gal3S(b1-4)GlcNAc
Procedure, shortened: as §1

Gal3S(b1-4)GlcNAc6S = molecular target: Gal3S(b1-4)GlcNAc6S
Procedure, shortened: as §1

[34] = molecular target: Gal3S(b1-4)[Fuc(a1-3)]Glc
Procedure, shortened: as §1

Gal3S4S(b1-4)GlcNAc = molecular target: Gal3S4S(b1-4)GlcNAc
Procedure, shortened: as §1

Gal3S6S(b1-4)GlcNAc = molecular target: Gal3S6S(b1-4)GlcNAc
Procedure, shortened: as §1

B1: DC-SIGN (Canis lupus), XP_853402 (protein)
chain: AGLCRPCPWKWELFQESCYFFSQTQNTWKESISACQNLRAQLVIINSTEEQKFLKSWNTRNNQRTWIGLSDHHNEGSWKWVDNTPLQLSFWKEGEPNNHGDEDCVELYSDGWNDNRCSTENFWICKKPSSPCPGPGLNDIFEAQKIEWHE
How did the “glycan array binding signal (z-score)” value [1] turn out when B1 was run?
Its value is -0.153.

What about the “glycan array binding signal (z-score)” value [2] of the same binder?
The value was 0.754.

What about the “glycan array binding signal (z-score)” value [3] of the same binder?
The value was 5.73.

And the “glycan array binding signal (z-score)” value [4]?
The value was -0.113.

And the “glycan array binding signal (z-score)” value [5]?
The value was -0.293.

And the “glycan array binding signal (z-score)” value [6]?
Its value is 0.143.

And the “glycan array binding signal (z-score)” value [7]?
The value was -0.212.

What about the “glycan array binding signal (z-score)” value [8] of the same binder?
The value was -0.216.

And the “glycan array binding signal (z-score)” value [9]?
The value was -0.196.

What about the “glycan array binding signal (z-score)” value [10] of the same binder?
Its value is -0.169.

What about the “glycan array binding signal (z-score)” value [11] of the same binder?
The value was -0.255.

What about the “glycan array binding signal (z-score)” value [12] of the same binder?
Its value is -0.176.

What about the “glycan array binding signal (z-score)” value (Gal(b1-4)Glc) of the same binder?
The value was -0.159.

And the “glycan array binding signal (z-score)” value (Gal(b1-4)Glc6S)?
Its value is -0.171.

What about the “glycan array binding signal (z-score)” value (Gal(b1-4)GlcNAc) of the same binder?
Its value is -0.269.

What about the “glycan array binding signal (z-score)” value [13] of the same binder?
The value was -0.306.

What about the “glycan array binding signal (z-score)” value [14] of the same binder?
The value was -0.277.

What about the “glycan array binding signal (z-score)” value [15] of the same binder?
Its value is -0.314.

What about the “glycan array binding signal (z-score)” value [16] of the same binder?
Its value is -0.38.

And the “glycan array binding signal (z-score)” value [17]?
The value was -0.268.

And the “glycan array binding signal (z-score)” value [18]?
The value was -0.292.

And the “glycan array binding signal (z-score)” value [19]?
The value was -0.247.

What about the “glycan array binding signal (z-score)” value [20] of the same binder?
Its value is -0.262.

And the “glycan array binding signal (z-score)” value [21]?
Its value is -0.125.

And the “glycan array binding signal (z-score)” value [22]?
The value was -0.251.

What about the “glycan array binding signal (z-score)” value [23] of the same binder?
The value was -0.203.

And the “glycan array binding signal (z-score)” value [24]?
Its value is -0.222.

What about the “glycan array binding signal (z-score)” value [25] of the same binder?
The value was -0.072.

And the “glycan array binding signal (z-score)” value [26]?
Its value is -0.237.

And the “glycan array binding signal (z-score)” value [27]?
The value was -0.277.

And the “glycan array binding signal (z-score)” value [28]?
Its value is -0.188.

And the “glycan array binding signal (z-score)” value [29]?
Its value is -0.212.

And the “glycan array binding signal (z-score)” value [30]?
Its value is -0.091.

And the “glycan array binding signal (z-score)” value [31]?
The value was -0.232.

What about the “glycan array binding signal (z-score)” value [32] of the same binder?
Its value is -0.253.

What about the “glycan array binding signal (z-score)” value (Gal3S(b1-3)GalNAc) of the same binder?
The value was 0.029.

What about the “glycan array binding signal (z-score)” value (Gal3S(b1-3)GlcNAc) of the same binder?
The value was -0.026.

And the “glycan array binding signal (z-score)” value [33]?
The value was -0.098.

And the “glycan array binding signal (z-score)” value (Gal3S(b1-4)Glc)?
The value was -0.111.

What about the “glycan array binding signal (z-score)” value (Gal3S(b1-4)Glc6S) of the same binder?
The value was -0.131.

What about the “glycan array binding signal (z-score)” value (Gal3S(b1-4)GlcNAc) of the same binder?
Its value is -0.113.

What about the “glycan array binding signal (z-score)” value (Gal3S(b1-4)GlcNAc6S) of the same binder?
Its value is -0.224.

What about the “glycan array binding signal (z-score)” value [34] of the same binder?
Its value is 0.185.

What about the “glycan array binding signal (z-score)” value (Gal3S4S(b1-4)GlcNAc) of the same binder?
The value was -0.233.

What about the “glycan array binding signal (z-score)” value (Gal3S6S(b1-4)GlcNAc) of the same binder?
The value was -0.036.
